Data on nine cell lines can be found in the supplement of paper PMC4967469.

Holding throughout (experiment): Viability of human cancer cell lines after 72 h of drug (GDSC screen)
Compound in one assay: C[C@@H](N)c1ccc(C(=O)Nc2ccnc3[nH]ccc23)cc1 [Y-39983]
To be noted: top dose 20 µM; top dose inferred. The protocol:
(§1)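 Human cancer cell lines in 384-well plates, medium with 10% serum, drug for 72 h over a 256-fold dose range (nine 2-fold or five 4-fold steps up to the top dose). Adherent lines were fixed and stained with the nucleic acid dye Syto60, suspension lines read with resazurin; signal relative to control wells, capped at 0 and 100%. One two-parameter sigmoid per drug and line, fitted in a mixed model over all curves with the slope shared within a line.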

Compound in the next assay: NC(=O)Nc1sc(-c2ccc(F)cc2)cc1C(N)=O [TPCA-1]
The following applies: top dose 20 µM. The protocol: as §1

Compound in another assay: CN1CCN(CCOc2cc(OC3CCOCC3)c3c(Nc4c(Cl)ccc5c4OCO5)ncnc3c2)CC1 [AZD-0530]
The following applies: top dose 2 µM. How it is done:
as §1

Compound in another assay: CC(C)CC(=O)Nc1n[nH]c2c1CN(C(=O)C1CCN(C)CC1)C2(C)C [PHA-793887]
The following applies: top dose 10.24 µM. How it is done:
as §1

Compound in another assay: CCc1nc(N)nc(N)c1-c1ccc(Cl)cc1 [Pyrimethamine]
The following applies: top dose 20 µM; top dose inferred. The protocol:
as §1

Compound in a further assay: C/C(=C\c1csc(C)n1)[C@@H]1C[C@@H]2O[C@]2(C)CCC[C@H](C)[C@H](O)[C@@H](C)C(=O)C(C)(C)[C@@H](O)CC(=O)O1 [Epothilone B]
The following applies: top dose 0.032 µM; top dose inferred. The protocol:
as §1

Compound in another assay: CCCS(=O)(=O)Nc1ccc(F)c(C(=O)c2c[nH]c3ncc(Cl)cc23)c1F [PLX4720]
The following applies: top dose 10 µM. How it is done: as §1

Setting [1] is: screen: GDSC drug entry 1371, top dose inferred.

As a reminder, the IC50 is the point on the concentration scale where inhibition reaches its midpoint.

IC50 is the fitted dose that halves viability relative to control wells, and lower means more sensitive; where the fit passes the top or lowest dose, that dose stands as a limit. AUC, from the same fit, is the share of area under the viability curve across the 256-fold dose range; values near 1 show little effect. For some of these results: The top dose, if marked as inferred, was derived from the fitted curves, not read from the paper. For some of these results: Drugs with an entry number were screened twice under separate entries, and the two screens often disagree.

For the cell line COLO-829 (melanoma, adherent), the AUC was found to be 0.975 with Y-39983; 0.92 with TPCA-1; 0.959 in the assay with AZD-0530; 0.892 with PHA-793887; 0.581 in the assay with Pyrimethamine; 0.955 in the assay with Epothilone B. Besides, the AUC with PLX4720 (setting [1]) came out at 0.792. The IC50 with Y-39983 is more than 20 µM; with TPCA-1, more than 20 µM; with AZD-0530 it was more than 2 µM; in the assay with PHA-793887, more than 10.2 µM; with Pyrimethamine, 2.31 µM; with Epothilone B, more than 0.032 µM. For the same cell line, in the assay with PLX4720 (setting [1]), the IC50 turned out to be 7.17 µM.

For the cell line “COR-L95 (small cell lung carcinoma, adherent)”, the AUC with Y-39983 was 0.926; with TPCA-1 it was 0.948; with AZD-0530 it was 0.985; in the assay with PHA-793887 it was 0.795; in the assay with Pyrimethamine, 0.892; in the assay with Epothilone B, 0.964. For the same cell line, the AUC stood at 0.987 in the assay with PLX4720 (screen: GDSC drug entry 1036) and 0.985 with PLX4720 (setting [1]). Further, the IC50 with Y-39983 was more than 20 µM; with TPCA-1, more than 20 µM; with AZD-0530, more than 2 µM; with PHA-793887, 5.64 µM; with Pyrimethamine, more than 20 µM; with Epothilone B, more than 0.032 µM. In addition, the IC50 with PLX4720 (screen: GDSC drug entry 1036) and with PLX4720 (setting [1]) was more than 10 µM throughout.

Consider CP66-MEL (melanoma, adherent), for which the AUC with Y-39983 amounted to 0.98; in the assay with TPCA-1, 0.979; in the assay with AZD-0530, 0.984; with PHA-793887, 0.973; in the assay with Pyrimethamine it was 0.979; in the assay with Epothilone B, 0.754. Also, the AUC is 0.867 with PLX4720 (screen: GDSC drug entry 1036) and 0.852 with PLX4720 (setting [1]). The IC50 in the assay with Y-39983 is more than 20 µM; with TPCA-1, more than 20 µM; with AZD-0530, more than 2 µM; with PHA-793887 it was more than 10.2 µM; with Pyrimethamine, more than 20 µM; in the assay with Epothilone B, 0.0121 µM. Also, the IC50 with PLX4720 (screen: GDSC drug entry 1036) was more than 10 µM; with PLX4720 (setting [1]), 9.44 µM.

Regarding “CPC-N (small cell lung carcinoma, suspension)”, the AUC turned out to be 0.947 with Y-39983; 0.852 with TPCA-1; 0.973 with AZD-0530; 0.588 with PHA-793887; 0.845 with Pyrimethamine; 0.739 in the assay with Epothilone B. For the same cell line, the AUC in the assay with PLX4720 (screen: GDSC drug entry 1036) was 0.928; with PLX4720 (setting [1]), 0.932. For the same cell line, the half-inhibitory concentration (IC50) is more than 20 µM in the assay with Y-39983; 17.8 µM with TPCA-1; more than 2 µM with AZD-0530; 1.14 µM with PHA-793887; 16.5 µM with Pyrimethamine; 0.0104 µM with Epothilone B. For the same cell line, the IC50 in the assay with PLX4720 (screen: GDSC drug entry 1036) and with PLX4720 (setting [1]) was more than 10 µM in each case.

Take “CTV-1 (acute myeloid leukaemia, suspension)”: the AUC with Y-39983 stood at 0.923; with TPCA-1, 0.718; with AZD-0530, 0.383; with PHA-793887, 0.501; with Pyrimethamine, 0.628; in the assay with Epothilone B, 0.659. In addition, the AUC in the assay with PLX4720 (screen: GDSC drug entry 1036) was 0.975; with PLX4720 (setting [1]), 0.992. Moreover, the IC50 with Y-39983 was more than 20 µM; with TPCA-1 it was 4.45 µM; in the assay with AZD-0530, 0.064 µM; with PHA-793887, 0.642 µM; in the assay with Pyrimethamine, 2.61 µM; with Epothilone B it was 0.00502 µM. For the same cell line, the IC50 in the assay with PLX4720 (screen: GDSC drug entry 1036) and with PLX4720 (setting [1]) was more than 10 µM in each case.

Consider CW-2 (large intestine, adherent), for which the AUC amounted to 0.966 with Y-39983; 0.925 with TPCA-1; 0.989 with AZD-0530; 0.988 with PHA-793887; 0.987 with Pyrimethamine; 0.989 with Epothilone B. Further, the AUC with PLX4720 (screen: GDSC drug entry 1036) stood at 0.983; with PLX4720 (setting [1]) it was 0.988. For the same cell line, the IC50 is more than 20 µM with Y-39983; more than 20 µM in the assay with TPCA-1; more than 2 µM with AZD-0530; more than 10.2 µM with PHA-793887; more than 20 µM with Pyrimethamine; more than 0.032 µM with Epothilone B. Besides, the IC50 with PLX4720 (screen: GDSC drug entry 1036) and with PLX4720 (setting [1]) was more than 10 µM in each case.

In the case of Calu-6 (lung adenocarcinoma, adherent), the AUC in the assay with Y-39983 is 0.952; with TPCA-1 it was 0.86; with AZD-0530, 0.963; with PHA-793887 it was 0.828; with Pyrimethamine, 0.944; with Epothilone B, 0.69. Moreover, the AUC was 0.984 with PLX4720 (screen: GDSC drug entry 1036) and 0.926 with PLX4720 (setting [1]). The IC50 with Y-39983 was more than 20 µM; in the assay with TPCA-1 it was more than 20 µM; with AZD-0530, more than 2 µM; in the assay with PHA-793887, 7.6 µM; with Pyrimethamine it was more than 20 µM; with Epothilone B it was 0.00741 µM. Also, the IC50 with PLX4720 (screen: GDSC drug entry 1036) and in the assay with PLX4720 (setting [1]) was more than 10 µM throughout.

As for D-263MG (glioma, adherent), the AUC with Y-39983 is 0.955; in the assay with TPCA-1, 0.975; with AZD-0530, 0.983; in the assay with PHA-793887 it was 0.983; with Pyrimethamine, 0.971; with Epothilone B, 0.819. In addition, the AUC with PLX4720 (screen: GDSC drug entry 1036) worked out at 0.975; with PLX4720 (setting [1]) it was 0.981. Moreover, the IC50 in the assay with Y-39983 is more than 20 µM; with TPCA-1 it was more than 20 µM; with AZD-0530, more than 2 µM; with PHA-793887, more than 10.2 µM; with Pyrimethamine, more than 20 µM; in the assay with Epothilone B, 0.0234 µM. In addition, the IC50 with PLX4720 (screen: GDSC drug entry 1036) and in the assay with PLX4720 (setting [1]) was more than 10 µM each time.

D-283MED (medulloblastoma, adherent): the AUC in the assay with Y-39983 was 0.991; in the assay with TPCA-1 it was 0.991; with AZD-0530, 0.968; with PHA-793887, 0.991; in the assay with Pyrimethamine, 0.988; with Epothilone B, 0.945. The AUC with PLX4720 (screen: GDSC drug entry 1036) is 0.934; with PLX4720 (setting [1]), 0.986. Further, the IC50 was more than 20 µM in the assay with Y-39983; more than 20 µM with TPCA-1; more than 2 µM with AZD-0530; more than 10.2 µM with PHA-793887; more than 20 µM with Pyrimethamine; more than 0.032 µM with Epothilone B. The IC50 with PLX4720 (screen: GDSC drug entry 1036) and with PLX4720 (setting [1]) was more than 10 µM in each case.
